# The list shows a part of the results.
# B1: Langerin (Homo sapiens), Q9UJ71 (protein)
# chain: STLNAQIPELKSDLEKASALNTKIRALQGSLENMSKLLKRQNDILQVVSQGWKYFKGNFYYFSLIPKTWYSAEQFCVSRNSHLTSVTSESEQEFLYKTAGGLIYWIGLTKAGMEGDWSWVDDTPFNKVQSARFWIPGEPNDAGNNEHCGNIKAPSLQAWNDAPCDITFLFICKRPYVPSEP
# Assays:
# Test in all cases: glycan array binding signal (z-score within array); higher = stronger binding
# Details in all cases: glycan notation: IUPAC condensed, linker removed; mutation: N288D, K313I
# Gal(a1-3)Gal(b1-4)GlcNAc = biological target: Gal(a1-3)Gal(b1-4)GlcNAc
# Method in brief: (§1)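 Arrays were curated from the Consortium for Functional Glycomics database, 3228 in total, and kept only where the protein sequence was available. Binding is expressed as a within-array Z-score. This score was averaged across arrays of the same protein sequence at different concentrations or buffers and across linkers, and negative values can be read as non-binding.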
# [1] = biological target: Gal(a1-3)Gal(b1-4)GlcNAc(b1-2)Man
# Method in brief: as §1
# [2] = biological target: Gal(a1-3)Gal(b1-4)GlcNAc(b1-2)Man(a1-3)[Gal(a1-3)Gal(b1-4)GlcNAc(b1-2)Man(a1-6)]Man(b1-4)GlcNAc(b1-4)GlcNAc
# Method in brief: as §1
# [3] = biological target: Gal(a1-3)Gal(b1-4)GlcNAc(b1-3)GalNAc
# Method in brief: as §1
# [4] = biological target: Gal(a1-3)Gal(b1-4)GlcNAc(b1-6)GalNAc
# Method in brief: as §1
# [5] = biological target: Gal(a1-3)Gal(b1-4)[Fuc(a1-3)]GlcNAc
# Method in brief: as §1
# [6] = biological target: Gal(a1-3)Gal(b1-4)[Fuc(a1-3)]GlcNAc(b1-2)Man(a1-3)[Gal(a1-3)Gal(b1-4)[Fuc(a1-3)]GlcNAc(b1-2)Man(a1-6)]Man(b1-4)GlcNAc(b1-4)GlcNAc
# Method in brief: as §1
# Gal(a1-3)GalNAc = biological target: Gal(a1-3)GalNAc
# Method in brief: as §1
# [7] = biological target: Gal(a1-3)[Gal(a1-4)]Gal(b1-4)GlcNAc
# Method in brief: as §1
# [8] = biological target: Gal(a1-4)Gal(b1-3)GlcNAc(b1-2)Man(a1-3)[Gal(a1-4)Gal(b1-3)GlcNAc(b1-2)Man(a1-6)]Man(b1-4)GlcNAc(b1-4)GlcNAc
# Method in brief: as §1
# Gal(a1-4)Gal(b1-4)Glc = biological target: Gal(a1-4)Gal(b1-4)Glc
# Method in brief: as §1
# Gal(a1-4)Gal(b1-4)GlcNAc = biological target: Gal(a1-4)Gal(b1-4)GlcNAc
# Method in brief: as §1
# [9] = biological target: Gal(a1-4)Gal(b1-4)GlcNAc(b1-2)Man(a1-3)[Gal(a1-4)Gal(b1-4)GlcNAc(b1-2)Man(a1-6)]Man(b1-4)GlcNAc(b1-4)GlcNAc
# Method in brief: as §1
# [10] = biological target: Gal(a1-4)Gal(b1-4)GlcNAc(b1-3)Gal(b1-4)Glc
# Method in brief: as §1
# Gal(a1-4)GlcNAc = biological target: Gal(a1-4)GlcNAc
# Method in brief: as §1
# Gal(a1-6)Glc = biological target: Gal(a1-6)Glc
# Method in brief: as §1
# Gal(b1-2)Gal = biological target: Gal(b1-2)Gal
# Method in brief: as §1
# Gal(b1-3)Gal = biological target: Gal(b1-3)Gal
# Method in brief: as §1
# Gal(b1-3)Gal(b1-4)GlcNAc = biological target: Gal(b1-3)Gal(b1-4)GlcNAc
# Method in brief: as §1
# Gal(b1-3)GalNAc = biological target: Gal(b1-3)GalNAc
# Method in brief: as §1
# [11] = biological target: Gal(b1-3)GalNAc(a1-3)[Fuc(a1-2)]Gal(b1-4)Glc
# Method in brief: as §1
# [12] = biological target: Gal(b1-3)GalNAc(a1-3)[Fuc(a1-2)]Gal(b1-4)GlcNAc
# Method in brief: as §1
# Gal(b1-3)GalNAc(b1-3)Gal = biological target: Gal(b1-3)GalNAc(b1-3)Gal
# Method in brief: as §1
# [13] = biological target: Gal(b1-3)GalNAc(b1-3)Gal(a1-4)Gal(b1-4)Glc
# Method in brief: as §1
# [14] = biological target: Gal(b1-3)GalNAc(b1-4)Gal(b1-4)Glc
# Method in brief: as §1
# [15] = biological target: Gal(b1-3)GalNAc(b1-4)[Neu5Ac(a2-3)]Gal(b1-4)Glc
# Method in brief: as §1
# Gal(b1-3)GlcNAc = biological target: Gal(b1-3)GlcNAc
# Method in brief: as §1
# [16] = biological target: Gal(b1-3)GlcNAc(a1-3)Gal(b1-4)GlcNAc
# Method in brief: as §1
# [17] = biological target: Gal(b1-3)GlcNAc(a1-6)Gal(b1-4)GlcNAc
# Method in brief: as §1
# Gal(b1-3)GlcNAc(b1-2)Man = biological target: Gal(b1-3)GlcNAc(b1-2)Man
# Method in brief: as §1
# [18] = biological target: Gal(b1-3)GlcNAc(b1-2)Man(a1-3)[Gal(b1-3)GlcNAc(b1-2)Man(a1-6)]Man(b1-4)GlcNAc(b1-4)GlcNAc
# Method in brief: as §1
# [19] = biological target: Gal(b1-3)GlcNAc(b1-2)Man(a1-3)[Gal(b1-3)GlcNAc(b1-2)Man(a1-6)]Man(b1-4)GlcNAc(b1-4)[Fuc(a1-6)]GlcNAc
# Method in brief: as §1
# [20] = biological target: Gal(b1-3)GlcNAc(b1-2)Man(a1-3)[GlcNAc(b1-4)][Gal(b1-3)GlcNAc(b1-2)Man(a1-6)]Man(b1-4)GlcNAc(b1-4)GlcNAc
# Method in brief: as §1
# [21] = biological target: Gal(b1-3)GlcNAc(b1-2)[Gal(b1-3)GlcNAc(b1-6)]Man(a1-6)[Gal(b1-3)GlcNAc(b1-2)Man(a1-3)]Man(b1-4)GlcNAc(b1-4)GlcNAc
# Method in brief: as §1
# [22] = biological target: Gal(b1-3)GlcNAc(b1-3)Gal(b1-3)GlcNAc
# Method in brief: as §1
# [23] = biological target: Gal(b1-3)GlcNAc(b1-3)Gal(b1-4)Glc
# Method in brief: as §1
# [24] = biological target: Gal(b1-3)GlcNAc(b1-3)Gal(b1-4)GlcNAc
# Method in brief: as §1
# [25] = biological target: Gal(b1-3)GlcNAc(b1-3)Gal(b1-4)GlcNAc(b1-2)Man(a1-3)[Gal(b1-3)GlcNAc(b1-3)Gal(b1-4)GlcNAc(b1-2)Man(a1-6)]Man(b1-4)GlcNAc(b1-4)GlcNAc
# Method in brief: as §1
# [26] = biological target: Gal(b1-3)GlcNAc(b1-3)Gal(b1-4)GlcNAc(b1-2)[Gal(b1-3)GlcNAc(b1-3)Gal(b1-4)GlcNAc(b1-6)]Man(a1-6)[Gal(b1-3)GlcNAc(b1-3)Gal(b1-4)GlcNAc(b1-2)Man(a1-3)]Man(b1-4)GlcNAc(b1-4)[Fuc(a1-6)]GlcNAc
# Method in brief: as §1
# [27] = biological target: Gal(b1-3)GlcNAc(b1-3)Gal(b1-4)GlcNAc(b1-3)Gal(b1-4)GlcNAc(b1-2)[Gal(b1-3)GlcNAc(b1-3)Gal(b1-4)GlcNAc(b1-3)Gal(b1-4)GlcNAc(b1-6)]Man(a1-6)[Gal(b1-3)GlcNAc(b1-3)Gal(b1-4)GlcNAc(b1-3)Gal(b1-4)GlcNAc(b1-2)Man(a1-3)]Man(b1-4)GlcNAc(b1-4)[Fuc(a1-6)]GlcNAc
# Method in brief: as §1
# [28] = biological target: Gal(b1-3)GlcNAc(b1-3)Gal(b1-4)GlcNAc(b1-6)[Gal(b1-3)GlcNAc(b1-3)]Gal(b1-4)Glc
# Method in brief: as §1
# [29] = biological target: Gal(b1-3)GlcNAc(b1-3)Gal(b1-4)[Fuc(a1-3)]GlcNAc
# Method in brief: as §1
# [30] = biological target: Gal(b1-3)GlcNAc(b1-3)Gal(b1-4)[Fuc(a1-3)]GlcNAc(b1-6)[Gal(b1-3)GlcNAc(b1-3)]Gal(b1-4)Glc
# Method in brief: as §1
# [31] = biological target: Gal(b1-3)GlcNAc(b1-3)GalNAc
# Method in brief: as §1
# [32] = biological target: Gal(b1-3)GlcNAc(b1-6)Gal(b1-4)GlcNAc
# Method in brief: as §1
binder,measurement,setting,value
B1,glycan array binding signal (z-score),Gal(a1-3)Gal(b1-4)GlcNAc,0.035
same,glycan array binding signal (z-score),[1],-0.284
same,glycan array binding signal (z-score),[2],0.041
same,glycan array binding signal (z-score),[3],-0.069
same,glycan array binding signal (z-score),[4],-0.195
same,glycan array binding signal (z-score),[5],-0.211
same,glycan array binding signal (z-score),[6],-0.083
same,glycan array binding signal (z-score),Gal(a1-3)GalNAc,-0.111
same,glycan array binding signal (z-score),[7],-0.019
same,glycan array binding signal (z-score),[8],-0.106
same,glycan array binding signal (z-score),Gal(a1-4)Gal(b1-4)Glc,0.698
same,glycan array binding signal (z-score),Gal(a1-4)Gal(b1-4)GlcNAc,-0.156
same,glycan array binding signal (z-score),[9],-0.269
same,glycan array binding signal (z-score),[10],-0.119
same,glycan array binding signal (z-score),Gal(a1-4)GlcNAc,-0.247
same,glycan array binding signal (z-score),Gal(a1-6)Glc,-0.032
same,glycan array binding signal (z-score),Gal(b1-2)Gal,-0.153
same,glycan array binding signal (z-score),Gal(b1-3)Gal,-0.11
same,glycan array binding signal (z-score),Gal(b1-3)Gal(b1-4)GlcNAc,-0.366
same,glycan array binding signal (z-score),Gal(b1-3)GalNAc,-0.221
same,glycan array binding signal (z-score),[11],-0.171
same,glycan array binding signal (z-score),[12],-0.246
same,glycan array binding signal (z-score),Gal(b1-3)GalNAc(b1-3)Gal,-0.221
same,glycan array binding signal (z-score),[13],-0.043
same,glycan array binding signal (z-score),[14],-0.063
same,glycan array binding signal (z-score),[15],-0.17
same,glycan array binding signal (z-score),Gal(b1-3)GlcNAc,-0.17
same,glycan array binding signal (z-score),[16],-0.321
same,glycan array binding signal (z-score),[17],-0.25
same,glycan array binding signal (z-score),Gal(b1-3)GlcNAc(b1-2)Man,-0.223
same,glycan array binding signal (z-score),[18],0.101
same,glycan array binding signal (z-score),[19],-0.098
same,glycan array binding signal (z-score),[20],0.469
same,glycan array binding signal (z-score),[21],0.147
same,glycan array binding signal (z-score),[22],-0.248
same,glycan array binding signal (z-score),[23],-0.292
same,glycan array binding signal (z-score),[24],-0.275
same,glycan array binding signal (z-score),[25],0.441
same,glycan array binding signal (z-score),[26],5.7
same,glycan array binding signal (z-score),[27],7.74
same,glycan array binding signal (z-score),[28],-0.218
same,glycan array binding signal (z-score),[29],-0.264
same,glycan array binding signal (z-score),[30],-0.241
same,glycan array binding signal (z-score),[31],0.097
same,glycan array binding signal (z-score),[32],-0.29

# From the supplement of paper PMC8728848
